Laboratory results: PubChem BioAssay AID1159614 (National Center for Advancing Translational Sciences (NCATS), 2016)
About 65 (0.1%) of roughly 45,000 compounds were called active. Calls come from the whole dose curve; as a rule, active = well fitted activation curve with a large enough effect; inconclusive = small, poorly fitted or top-dose-only effect; inactive = no such curve, though single readings can be large or run the other way. Some of the results follow.

molecular target: Galactocerebrosidase (Homo sapiens) (UniProt P54803); experiment: A Novel Cell-Based Assay to Identify Small Molecules for B -Galactocerebrosidase; conditions: 145M-Twi-hGALC-G270D cells (Twitcher mouse brain line with human GALC G270D), HMU-beta-Gal fluorescence, 48 h; series mostly up to 57.5 µM; activation: at the top concentration; note: 0% is about no effect; nearly all actives have a fitted effect of over 65% in size
UniProt P54803, sequence (P54803 whole entry, looked up): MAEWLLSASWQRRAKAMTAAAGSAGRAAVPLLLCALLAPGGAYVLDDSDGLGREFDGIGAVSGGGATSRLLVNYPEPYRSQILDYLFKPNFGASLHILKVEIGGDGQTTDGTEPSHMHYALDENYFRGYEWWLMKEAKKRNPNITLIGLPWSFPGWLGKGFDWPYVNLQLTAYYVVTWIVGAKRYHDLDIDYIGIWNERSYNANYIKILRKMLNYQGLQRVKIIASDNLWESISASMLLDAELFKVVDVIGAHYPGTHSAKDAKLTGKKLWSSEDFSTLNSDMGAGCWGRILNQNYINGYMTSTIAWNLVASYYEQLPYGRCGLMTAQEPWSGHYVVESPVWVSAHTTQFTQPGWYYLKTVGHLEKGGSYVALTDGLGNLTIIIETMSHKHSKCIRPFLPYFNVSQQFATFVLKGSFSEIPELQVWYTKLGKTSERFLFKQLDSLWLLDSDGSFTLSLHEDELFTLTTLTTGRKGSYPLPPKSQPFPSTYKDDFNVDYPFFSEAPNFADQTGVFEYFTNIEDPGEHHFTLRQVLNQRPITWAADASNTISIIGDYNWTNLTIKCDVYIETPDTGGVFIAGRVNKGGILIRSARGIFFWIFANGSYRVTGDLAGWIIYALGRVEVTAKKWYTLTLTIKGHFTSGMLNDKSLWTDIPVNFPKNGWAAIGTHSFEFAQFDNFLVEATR
In short: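 Brain-derived Twitcher mouse 145M-Twi cells stably expressing human GALC-G270D or wild-type GALC, treated live, then residual GALC activity read by fluorescence of HMU-b-Gal substrate (0.1 mM final) in citrate-phosphate buffer pH 5.2 with sodium taurocholate. Signal increase indicates enhancement.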

activation, inactive:
O=C(O)Cc1ccc2c(c1)C(=O)c1ccccc1CO2 -8.94%
CCc1ccc(-c2nc3cc(NC(=O)c4ccc(C)c(C)c4)ccc3o2)cc1 -24.6%
COc1ccc(-c2cc(-c3nc(-c4cc(OC)c(OC)c(OC)c4)no3)[nH]n2)c(OC)c1 -20.5%
CC(=O)NCCNC(=O)CCCc1nnc2n(CC(C)C)c(=O)c3sccc3n12 -3.31%
Cc1nc2ccccc2n1Cc1ccc(Cl)cc1 -17.4%
COc1ccc(S(=O)(=O)NCc2cccn2Cc2cc(C)ccc2C)cc1OC -9.58%
CCc1nnc2c3ccccc3nc(Nc3cc(C)cc(C)c3)n12 -22.5%
COc1cccc(NC(=O)Cn2c(=O)n(Cc3ccc(F)cc3)c(=O)c3sc4ccccc4c32)c1 -14.2%
O=C(NCCCN1CCN(c2ccccc2F)CC1)c1ccc2nc(CCc3ccccc3)oc2c1 -12.3%
CCOc1ccc(C(=O)Nc2ccc(OCc3cc(=O)n4cccc(C)c4n3)cc2)cc1 -9.09%
CCOC(=O)c1cccc(NC(=O)Nc2c(C)n(C)n(-c3ccccc3)c2=O)c1 -12.8%
O=c1[nH]c(C2CCCN(S(=O)(=O)c3ccccc3)C2)nc2c1nnn2Cc1ccccc1Br (stereo not drawn) 0.694%
COc1ccc(-c2ccc(=O)n(CC(=O)Nc3cc(OC)ccc3OC)n2)cc1 -3.71%
Cc1cccc(-n2ncc3c(NNC(=O)c4ccccc4Cl)ncnc32)c1 -14.2%
Cc1ccc(C)c(Nc2nn3c(=O)c4ccc(C(=O)NCc5ccccc5)cc4nc3s2)c1 -20.6%
COc1ccc(CNC(=O)c2cc(-c3ccc(Br)s3)nc3ccccc23)cc1 -14.5%
CCOC(=O)c1ccc(NC(=O)CC(C)n2nc(C)cc2C)cc1 (stereo not drawn) -13.6%
O=C(CN1C(=O)COc2ccc(S(=O)(=O)N3CCCCCC3)cc21)N1CCN(c2ccc(Cl)cc2)CC1 0.125%
COc1cc(NC(=O)Cc2noc3ccccc23)cc(OC)c1OC -18.8%
CCc1cnc2c(c1SCc1cc(OC)cc(OC)c1)c(=O)n(C)c(=O)n2C -13.7%
COc1ccc(OC)c(S(=O)(=O)NCCS(=O)(=O)N2CCN(c3ccccc3F)CC2)c1 -31.8%
CCS(=O)(=O)NCCc1csc2nc(-c3ccc(OC)cc3)nn12 -10.9%
Cc1ccc(C)c(CN2C(=O)c3ccccc3S(=O)c3ccc(C(=O)N4CCCCC4)cc32)c1 (stereo not drawn) -13.5%
COc1cccc(C(=O)Nc2nnc(S(=O)(=O)N3CCCc4ccccc43)s2)c1 -10.3%
Cc1nn(CCC(=O)Nc2cccc(C#N)c2)c(C)c1S(=O)(=O)N1CCCCC1 9.62%
Cc1cccc(C)c1NC(=O)Cn1cc(C(=O)C2CC2)c2ccccc21 -13.6%
CCCCN(CC)CCCNC(=O)c1cn(C)c(=O)c2c1c1ccccc1n2C -4.97%
C=CCc1ccccc1OCCSc1nc(-c2ccccc2F)nc2cc(=O)[nH]n12 -10.2%
O=S(=O)(NCC(c1ccccc1)N1CCc2ccccc21)c1ccc(Cl)cc1 (stereo not drawn) -35.6%
Cc1ccc(C(=O)C(=O)O)cc1C -13.3%
COc1ccccc1/C=C/C(=O)Nc1nc2n(n1)C(c1ccc(F)cc1)C=C(c1ccccc1)N2 (stereo not drawn) -9.28%
Cc1ccc(OCCn2c(C3CC(=O)N(Cc4ccc(F)cc4)C3)nc3ccccc32)c(C)c1 (stereo not drawn) -22.2%
CSc1ncc(C(=O)NCc2cccc(C)c2)c(-c2ccccc2)n1 -16.8%
Cc1cccc(NC(=O)c2c(NC(=O)c3ccccc3)sc3c2CCC3)c1 -13.2%
Cc1cc(C)cc(-n2ccnc2SCC(=O)Nc2ccccc2F)c1 -32.3%
COc1ccc(C(=O)c2cn(Cc3ccccc3OC)c3cc4c(cc3c2=O)OCO4)cc1 -8.7%
COC(=O)c1ccc(NC(=O)CC2C(=O)N(c3ccccc3)C(=O)N2Cc2cccs2)cc1 (stereo not drawn) -14.6%
CCN(CC)C(=O)c1sc2c(c1C)c(=O)n(-c1ccc(OC)cc1OC)c(=O)n2CC(=O)Nc1ccccc1 2.45%
Cc1cccc(N2CCN(c3nc4ccccc4c4nnc(C)n34)CC2)c1C -18.3%
COc1ccc(CNC(=O)Cn2cccc2C(=O)c2ccccc2C)cc1 -2.41%
CC(C)c1ccc(C2NC(=O)c3c(sc4c3CCN(C)C4)N2)cc1 (stereo not drawn) -5.43%
CCOc1ccccc1NC(=O)Cn1c(=O)n(-c2ccc(C)cc2)c(=O)c2c1cnn2C -13%
Cc1cc(C)cc(NC(=O)CCn2cnc3ccccc3c2=O)c1 -9.73%
COc1ccc2c(c1)c(CC(=O)Nc1c(C)cccc1C)c(C)n2C(=O)c1ccc(Cl)cc1 -12.4%
CSc1ccc(CCNC(=O)c2ccc(-n3c(C)cc4c3CCC(C)C4)cc2)cc1 (stereo not drawn) -26%
COc1ccc(OCC(=O)NCc2ccc3c(c2)CCN3C(=O)c2cccc(C)c2)cc1 -29.3%
CC(=O)N1CCCC1c1nc2ccccc2n1Cc1cccc(C)c1 (stereo not drawn) -13%
Cc1ccc(C)c(N2CCN(C(=O)c3c(C)oc4nc(C)nc(N5CCOCC5)c34)CC2)c1 4.09%
